The full ranking holds about 33,000 sequences; the median of “E-score (-0.5 to 0.5)” is about -0.021, and the highest 2% start at about 0.32. Some of the results follow.
Each sequence was assayed against T1, Zap1 (UniProt P47043) (assay: PBM E-score (8-mer binding enrichment) (E-score (-0.5 to 0.5)); higher = stronger / more preferred TF binding; most listed sequences are background and not binding sites). Conditions: protein concentration: 200 nM; construct: GST-full length.
T1 sequence: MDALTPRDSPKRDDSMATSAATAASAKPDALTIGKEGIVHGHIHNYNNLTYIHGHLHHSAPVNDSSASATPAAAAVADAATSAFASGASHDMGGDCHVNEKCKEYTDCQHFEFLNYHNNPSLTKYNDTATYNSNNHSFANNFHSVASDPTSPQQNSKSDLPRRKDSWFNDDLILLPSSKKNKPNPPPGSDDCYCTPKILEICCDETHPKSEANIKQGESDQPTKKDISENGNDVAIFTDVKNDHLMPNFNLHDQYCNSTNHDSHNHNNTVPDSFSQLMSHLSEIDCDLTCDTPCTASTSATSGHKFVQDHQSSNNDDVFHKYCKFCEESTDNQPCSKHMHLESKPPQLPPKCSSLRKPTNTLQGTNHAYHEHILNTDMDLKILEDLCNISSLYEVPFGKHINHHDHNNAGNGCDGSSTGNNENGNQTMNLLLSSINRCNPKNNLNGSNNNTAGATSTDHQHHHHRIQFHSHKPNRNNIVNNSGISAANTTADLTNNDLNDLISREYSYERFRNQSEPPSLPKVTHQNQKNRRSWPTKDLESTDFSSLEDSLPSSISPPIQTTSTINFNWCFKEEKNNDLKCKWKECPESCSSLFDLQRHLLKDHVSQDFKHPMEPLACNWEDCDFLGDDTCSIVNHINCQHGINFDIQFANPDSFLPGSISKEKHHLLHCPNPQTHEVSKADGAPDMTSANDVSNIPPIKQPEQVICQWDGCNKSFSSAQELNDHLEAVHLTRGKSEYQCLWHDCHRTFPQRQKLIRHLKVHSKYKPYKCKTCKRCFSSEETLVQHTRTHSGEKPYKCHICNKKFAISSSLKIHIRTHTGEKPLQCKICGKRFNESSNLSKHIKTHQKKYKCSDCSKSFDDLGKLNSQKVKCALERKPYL
Method in brief: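 Masliner-normalised scans of fluorescent anti-GST signal were the basis for scoring. That signal came from GST-tagged yeast transcription factors applied at about 100-200 nM to double-stranded universal all-10-mer Agilent arrays on fresh or once-stripped slides. Each ungapped eight-base word, pooled with its reverse complement, received an E-score from the Universal PBM Analysis Suite.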

Sequence | PBM E-score
ATCAGGTG | -0.0698
ATGTATCG | -0.0586
GTGTAAAC | 0.0154
ACCGGGGA | -0.0428
ACACTGCA | -0.131
ACGTTTGG | -0.0703
AAGACGAC | -0.033
AGCCAACC | 0.206
TGAGATCA | 0.00696
CTTCTTCC | -0.273
ACCAGAAC | 0.263
ATTTAACA | -0.0688
AGAAAGGA | -0.168
AATCAAAT | -0.0162
GAGAGGAA | -0.161
CGCGTCAG | -0.123
ATACTCAT | -0.174
CCAATTCC | 0.142
ATTATCGC | 0.249
CGGAAAAA | 0.179
AACTGTGG | 0.261
ATGGACAA | 0.0897

Sequence | PBM E-score
AGGGTATG | 0.395
AGGCAGGC | -0.28
AACTTAAC | 0.244
GCACGTGA | -0.176
ATTTCTAC | 0.0903
ACTACTTG | -0.0293
ATACCGTG | -0.0327
CAATCCCG | 0.105
GAAGCACA | -0.132
CCCCGGGG | 0.211
GGTTGAAC | 0.162
ACCTGGGC | -0.242
AAGAATCA | -0.0872
CATTAACG | 0.0999
GCGTGTCC | -0.175
ACACATGT | 0.0111
ATCCGCTA | -0.157
CATTCAGA | 0.0592
ATTAAGAC | 0.0665
CCTGATTC | -0.141
CGCATAAA | 0.0783
ATATCACG | -0.193

Sequence | PBM E-score
GCACTCAA | -0.0596
TGTACACA | 0.0485
ACCCCGGA | 0.287
AAAGTGCT | -0.0876
AAAAGGCA | 0.192
AGCACCGA | 0.0191
ATACTGGA | 0.104
AAAGGATT | -0.0714
CAACCACA | 0.291
CTGACAAA | 0.0942
ATAGCCTG | 0.00972
AAGCCCAG | -0.157
AAGGCAAT | -0.1
GGTGTTGA | -0.0445
CGCCCCGC | 0.00649
ACATAGAC | -0.104
GACTGCAA | -0.114
ACACATCC | -0.0974
TCCAATAA | 0.23
AACGTACT | 0.0257
CTCGGCAG | -0.15
AAGTGCGT | -0.0507

Sequence | PBM E-score
CCGGGTGA | 0.218
AAGCACCT | 0.00133
GCATAAAA | 0.108
CACCTGCG | -0.129
ATATTGGC | -0.0138
ACTCGTGA | -0.135
AACGTTCG | -0.104
CGTCCCGC | -0.0499
AAGATAGC | -0.144
AAGCTTTG | -0.0861
ATGTGAGC | -0.323
TCAGGTCA | 0.199
GAAAGAGA | -0.00161
CTTCTAGA | -0.105
ACCGTCCC | -0.132
ATCCGCTG | -0.219
AACTTCCG | -0.00312
ACTTTAAT | 0.126
ATGCAGTA | 0.0225
ACGGAGCG | -0.242

Source: the supplement of paper PMC3334620
